Counter-ions that a name gives are not always drawn. The list shows a part of the results. Repeats are few or missing, and single values can be far off.
Key:
KB-3-1 = assay: growth inhibition relative to DMSO control (SRB); cervical cancer cells: KB-3-1 is the parent and KB-V1 overexpresses MDR1; SRB is the sulforhodamine B stain; higher = more growth inhibition; conditions: 1 µM; 72 h
KB-V1 = assay: as above; conditions: 1 µM; 72 h
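Also: Read-out is SRB optical density at 490 nm, with the control being wells given 0.5% DMSO vehicle, and compound added one day after cells were plated.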

| SMILES | growth inhibition (KB-3-1) | growth inhibition (KB-V1) |
| --- | --- | --- |
| C=C1C[C@@H]2[C@H](CC[C@]3(C)C(=O)CC[C@@H]23)[C@@]2(C)C=CC(=O)C=C12 [Exemestane] | 34.2% | 43.2% |
| CNCC(O)c1ccc(O)cc1 (centres undefined) [Synephrine HCl] | 20.7% | 27.8% |
| C[C@]12CC[C@H](O)C[C@@H]1CC[C@@H]1[C@@H]2CC[C@]2(C)C(=O)CC[C@@H]12 [Epiandrosterone] | 26.3% | 20% |
| CCN(C)C(=O)Oc1cccc([C@H](C)N(C)C)c1 [Rivastigmine Tartrate] | 21.1% | 21.1% |
| CCCN1CCO[C@@H]2c3cc(O)ccc3OC[C@H]21 | < 0% | 29% |
| Cc1cc(SCc2sc(-c3ccc(C(F)(F)F)c(F)c3)nc2C)ccc1OCC(=O)O | 47.2% | 1.85% |
| Cc1cccc(Cc2c[nH]cn2)c1C [Detomidine HCl] | 29.2% | 22.1% |
| O=C(O[C@H]1C[N+]2(CCCOc3ccccc3)CCC1CC2)C(O)(c1cccs1)c1cccs1 [Aclidinium Bromide] | < 0% | 12% |
| O=C(NCC1CCOCC1)c1cnc(Nc2ccc(Cl)cc2Cl)nc1C(F)(F)F | 8.73% | 36.3% |
| CCC1(c2ccc(N)cc2)CCC(=O)NC1=O (centres undefined) [Aminoglutethimide] | 28.9% | 10.4% |
| Cc1cccc(C)c1NC1=NCCCS1 [Xylazine HCl] | 29.6% | 6.38% |
| CC(=O)O[C@H]1C[C@@H]2CC[C@@H]3[C@H](CC[C@@]4(C)[C@H]3C[C@H]([N+]3(C)CCCCC3)[C@@H]4OC(C)=O)[C@@]2(C)C[C@@H]1[N+]1(C)CCCCC1 [Pancuronium dibromide] | 26% | 5.32% |
| CC(C)(C)c1cc(C=C(C#N)C#N)cc(Br)c1O | 32.7% | 40.4% |
| Cn1cc(C2=C(c3cn(C4CCN(Cc5ccccn5)CC4)c4ccccc34)C(=O)NC2=O)c2ccccc21 | 42.1% | 32.6% |
| Cc1cccc(C(C)c2c[nH]cn2)c1C (centres undefined) [Medetomidine HCl] | < 0% | 4.16% |
| CC(O)(CS(=O)(=O)c1ccc(F)cc1)C(=O)Nc1ccc(C#N)c(C(F)(F)F)c1 (centres undefined) [Bicalutamide] | 34.9% | 45.8% |
| CNCC(=O)c1ccc(O)c(O)c1 [Adrenalone HCl] | 2.81% | 12.6% |
| Cc1ccccc1-n1c(Cn2ncc3c(N)ncnc32)nc2cccc(C)c2c1=O | < 0% | 36.4% |
| CN1CCN(c2nc3ccccc3nc2Cl)CC1 | < 0% | 11.9% |

| SMILES | growth inhibition (KB-3-1) | growth inhibition (KB-V1) |
| --- | --- | --- |
| C[C@]12CC[C@H](O)CC1=CC[C@@H]1[C@@H]2CC[C@]2(C)C(=O)CC[C@@H]12 [Dehydroepiandrosterone (DHEA)] | 28.7% | 7.13% |
| C[C@@H]1O[C@@H](O[C@H]2C[C@@H](O)[C@]3(CO)[C@H]4[C@H](O)C[C@]5(C)[C@@H](C6=CC(=O)OC6)CC[C@]5(O)[C@@H]4CC[C@]3(O)C2)[C@H](O)[C@H](O)[C@H]1O [Ouabain] | 41% | 78.8% |
| Cc1cccc(C)c1NC(=O)CN1CCCC1=O [Nefiracetam] | 53.2% | 21.6% |
| [O-][n+]1ccccc1[S-].[O-][n+]1ccccc1[S-].[Zn+2] [Zinc Pyrithione] | 88.5% | 85.9% |
| C[C@H]1CNCCc2ccc(Cl)cc21 [Lorcaserin HCl] | 4.24% | 5.62% |
| C[C@H]1CCC/C=C/[C@@H]2C[C@H](O)C[C@H]2[C@H](O)/C=C/C(=O)O1 [Brefeldin A] | 100% | 100% |
| CC(=O)Nc1ccc(OC[C@](C)(O)C(=O)Nc2ccc([N+](=O)[O-])c(C(F)(F)F)c2)cc1 [Andarine] | 31.6% | 29.1% |
| COc1cc(OC)c(OC)cc1C=O [Asaraldehyde] | 31.3% | 4.26% |
| Cc1ccc(-n2nccn2)c(C(=O)N2CCN(c3nc4cc(Cl)ccc4o3)CC[C@H]2C)c1 [Suvorexant (MK-4305)] | 0.442% | < 0% |
| C[N+](C)(C)CCCCCCCCCC[N+](C)(C)C [Decamethonium Bromide] | 10.3% | 8.05% |
| CN1c2ccccc2C(NCCCCCCC(=O)O)c2ccc(Cl)cc2S1(=O)=O (centres undefined) [Tianeptine sodium] | 10.2% | 34.4% |
| C[C@](O)(COc1ccc(C#N)cc1)C(=O)Nc1ccc(C#N)c(C(F)(F)F)c1 | 31% | 36.7% |
| CCOc1ccccc1-n1c(C(C)N2CCN(C(=O)COc3ccc(Cl)cc3)CC2)nc2ccccc2c1=O (centres undefined) [Erastin] | < 0% | < 0% |
| CCNC(=O)C[C@@H]1N=C(c2ccc(Cl)cc2)c2cc(OC)ccc2-n2c(C)nnc21 | 49.5% | 32.4% |
| C=CC[C@]1(O)CC[C@H]2[C@@H]3CCC4=CC(=O)CCC4=C3C=C[C@@]21C [Altrenogest] | 5.06% | 0.327% |
| C[C@@]12N[C@@H](Cc3ccccc31)c1ccccc12 [(-)-MK 801 Maleate] | 3.97% | 5.67% |
| O=C(O[C@H]1C[C@H]2CC[C@@H](C1)[N+]21CCCC1)C(O)(c1ccccc1)c1ccccc1 [Trospium chloride] | 25.1% | 6.38% |
| CCN1CCN(C(=O)Cc2ccc(Nc3ncc(F)c(Nc4ccc(C(=O)Nc5ccccc5Cl)cc4)n3)cc2)CC1 [Aurora A Inhibitor I] | 98% | 94.9% |

Source: the supplement of paper PMC7266297
